# Test results as given in PubChem BioAssay AID602233 (National Center for Advancing Translational Sciences (NCATS), 2012).
# Screen size: about 380,000 compounds; about 170 (0.045%) were called active. This list was built around the results that the source calls inconclusive (neither active nor inactive); the mix of calls is not that of the screen. The call rests on the fitted dose curve; in most records, active means well fitted inhibition curve with a large enough effect; inconclusive means small, poorly fitted or top-dose-only effect; inactive means no such curve, though single readings can be large or run the other way. No potency is given beside an inconclusive call; the fits are too rough.
# Biological target: Phosphoglycerate kinase, glycosomal (Trypanosoma brucei brucei) (UniProt P07378)
# Experiment: qHTS Assay to Find Inhibitors of Phosphoglycerate Kinase; further: nearly all actives have a fitted effect of over 60% in size
# Settings: PGK/GAPDH coupled, Kinase-Glo luminescence, 60 min; series mostly up to 57.5 µM
# Procedure, shortened: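 Luminescent ATP detection (Kinase-Glo Plus) follows a 60-minute room-temperature incubation, with wells lacking PGK as controls. Buffer: 100 mM TEA (pH 7.6), 5 mM MgCl2, 0.01% Tween-20. Coupling enzyme GAPDH (100 nM final) supplies unstable 1,3-BPG in-well.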
# Potency means the concentration at half of the fitted maximal effect; tags describe the fitted curve by direction and shape.
row,SMILES,Potency
1,Cc1ccc(/C=C/C(=O)NCc2ccccn2)o1,"inconclusive [inhibitor, partial curve]"
2,O=C(Nc1ccccc1)Nc1ccc(O)c2ccccc12,inactive
3,COc1cccc(C=Nc2ccc3c(c2)OCCO3)c1O,"inconclusive [inhibitor, single point]"
4,Cn1c(N=Nc2ccc(N3CCOCC3)cc2)[n+](C)c2ccccc21,"inconclusive [inhibitor, partial curve, poor fit]"
5,O=c1oc2cc(Oc3ccc(C(F)(F)F)cc3[N+](=O)[O-])ccc2c2c1CCCC2,"inconclusive [inhibitor, single point]"
6,Cc1nn(-c2ccccc2)c(Cl)c1/C=N/Nc1ccc(S(=O)(=O)Nc2ccccc2C(=O)O)cc1[N+](=O)[O-],"inconclusive [inhibitor, single point]"
7,CCOc1ccc(/C=C2\CCc3ccccc3C2=O)cc1,"inconclusive [inhibitor, partial curve]"
8,O=C(O)c1cc(N2C(=O)C=CC2=O)cc(N2C(=O)C=CC2=O)c1,"inconclusive [inhibitor, partial curve, poor fit]"
9,O=C(O)/C=C/c1ccc(S(=O)(=O)Nc2ccc(C(=O)NCC(=O)O)cc2)cc1,"inconclusive [inhibitor, single point]"
10,CSc1ccc(/C=C/c2nc3ccccc3n2S(=O)(=O)c2ccc(F)c(C)c2)cc1,"inconclusive [inhibitor, partial curve, poor fit]"
11,O=C(O)c1ccc(N/N=C/c2ccc3nccnc3c2)cc1,"inconclusive [inhibitor, partial curve, poor fit]"
12,Cc1ccsc1C(=O)Nc1ccc(OCc2ccccc2)cc1,"inconclusive [inhibitor, partial curve, poor fit]"
13,Cc1ccc(C(=O)O/N=C(\N)c2nonc2N)cc1,"inconclusive [inhibitor, partial curve]"
14,Cc1ccc(S(=O)(=O)Nc2nc3n(n2)C(c2ccc(Cl)cc2)C=C(c2ccccc2)N3)cc1 (centres undefined),"inconclusive [inhibitor, partial curve, poor fit]"
15,CCOc1ccc(CCNC(c2nnc(-c3ccccc3)o2)c2ccccc2Cl)cc1OCC (centres undefined),inactive
16,COC(=O)c1c(NC(=O)COC(=O)c2ccc(Cl)cc2[N+](=O)[O-])sc2c1CCCCC2,inactive
17,CC1C=CC=CC=CC=CC=CC=CC=CC(OC2OC(C)C(O)C(N)C2O)CC2OC(O)(CC(O)CC(O)C(O)CCC(O)CC(O)CC(=O)OC(C)C(C)C1O)CC(O)C2C(=O)O (centres undefined),"inconclusive [inhibitor, partial curve]"
18,C=CCOC(=O)C1=C(C)NC(=S)NC1/C=C/c1ccccc1 (centres undefined),"inconclusive [inhibitor, partial curve, poor fit]"
19,O=C(c1ccc(F)cc1)C1CCN(C(=S)Nc2ccc(F)cc2)CC1,"inconclusive [inhibitor, single point]"
20,C/C=C/C=C/C(=O)[C@@H]1[C@@H]([C@]2(C)OC(=O)C(C)=C2O)[C@H]2/C(=C(O)/C=C/C=C/C)C(=O)[C@]1(C)C(=O)C2(C)O (some centres undefined),"inconclusive [inhibitor, partial curve]"

row,SMILES,Potency
1,COc1ccccc1N1CCN(C(=O)CCNC(=O)c2ccco2)CC1,inactive
2,c1coc(-c2nnc(-c3ccco3)nn2)c1,"inconclusive [inhibitor, single point]"
3,O=C(/C=C/Nc1ccccc1F)c1cccs1,"inconclusive [inhibitor, single point]"
4,O=C(c1cc(O)c(O)c([N+](=O)[O-])c1)c1ccccc1F,"inconclusive [inhibitor, partial curve, poor fit]"
5,COc1cccc(-n2c(SCc3cc(=O)oc4cc(O)c(O)cc34)nc3ccccc3c2=O)c1,"inconclusive [inhibitor, partial curve, poor fit]"
6,N#C/C(=C\c1ccc([N+](=O)[O-])o1)C(=O)Nc1ccc(F)cc1,inactive
7,Cc1ccccc1OCCn1c(=O)sc2ccccc21,"inconclusive [inhibitor, single point]"
8,O=C(NCCCN1CCOCC1)c1ccc2c(c1)N(Cc1ccccc1)CCS2,"inconclusive [inhibitor, single point]"
9,Cc1ccc(CSCC(=O)N/N=C/c2ccc(OCC(=O)Nc3ccc(C)cc3)cc2)cc1,"inconclusive [inhibitor, single point]"
10,S=C(Nc1ccc(Oc2ccccc2)cc1)N1CCOCC1,"inconclusive [inhibitor, partial curve, poor fit]"
11,c1ccc2c(c1)ncn2Cc1nnc2sc(-c3ccc4c(c3)OCO4)nn12,inactive
12,Cc1ccc(S(=O)(=O)c2cc3c(=O)n4ccccc4nc3n(Cc3ccco3)c2=N)cc1C,inactive
13,O=C1c2ccccc2C(=O)c2c(O)c(O)cc(O)c21,"inconclusive [inhibitor, partial curve, poor fit]"
14,O=C(NC1CC1)c1cc(-c2ccco2)nc2ccccc12,"inconclusive [inhibitor, partial curve]"
15,O=C(Nc1ccccc1C(=O)N/N=C/c1ccncc1)c1ccccc1,"inconclusive [inhibitor, single point]"
16,O=C1C(=Cc2ccco2)CCC1=Cc1ccco1,active: 3.55 µM
17,CCCCN(C)C(=O)c1cc2cc3ccc(OC)cc3nc2s1,"inconclusive [inhibitor, partial curve, poor fit]"
18,NC(=O)c1ccc(-n2nnnc2SCC(=O)c2ccc(O)c(O)c2)cc1,"inconclusive [inhibitor, partial curve, poor fit]"
19,CSC1=NSC2=NC(=O)/C(=C/c3coc4ccc(O)cc4c3=O)C(=N)N12,"inconclusive [inhibitor, partial curve, poor fit]"
